Assay results: PMC4242493
The other results are listed elsewhere or left out. The list includes weakly bound sequences.

Molecular target: MaxL homodimer (UniProt P61244)
Assay: universal protein-binding microarray (PBM)
Settings: PBS-based mixture, 10 nM His-tagged protein dimer, 2% milk, 200 ng/uL BSA, 50 ng/uL salmon testes DNA, 0.02% TX-100; detection with Alexa 488 anti-His …; high values mean tight binding; most listed sequences are background and not binding sites; double strand, one strand shown

Sequence of UniProt P61244 (P61244 whole entry): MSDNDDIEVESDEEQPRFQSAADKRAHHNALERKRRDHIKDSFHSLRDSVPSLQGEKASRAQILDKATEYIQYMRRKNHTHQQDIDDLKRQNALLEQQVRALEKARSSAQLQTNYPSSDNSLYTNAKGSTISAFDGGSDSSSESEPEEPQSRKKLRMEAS

Sequence	binding signal (normalized occupancy)
CTCGCGAG	0.0703
CTTCATCA	0.0795
AAGTCGGA	0.0653
ACTCGCTA	0.07
AAGAGTAG	0.0774
GCGCCACC	0.0741
ATTGCAGA	0.0749
GATACCCC	0.0835
ATCTAGGC	0.0776
GTAATTAC	0.0776
ATGCGGGC	0.0827
GCGCTCTA	0.0696
CATGCATA	0.0989
CCATCCCG	0.0832
CATGCAAG	0.0837
AGACGCAA	0.0707
CCTTTTAA	0.0683
AGGTCGTC	0.0672
AAGTCTGG	0.0729
CTTCTCAA	0.076
GAAAGCAA	0.0708
GCGTCTTA	0.071
TAAATTCA	0.0775
GATGATGA	0.082
GACGTCCA	0.074

Sequence	binding signal (normalized occupancy)
GCGTCCGA	0.072
AATTGGCA	0.0753
CGATATCA	0.0798
AGCGGCCG	0.0648
AACGAACG	0.0707
CGATACTA	0.0777
ACATAACA	0.0805
AACGTTCC	0.0772
ACTCACTG	0.0717
GCCAACAC	0.0748
AGATCACT	0.0756
ACAATATC	0.0837
AGTATCTC	0.0779
ACTGTGAA	0.0727
CTAACTTA	0.0677
TATCAAAA	0.0754
CAATCGGA	0.0756
CTACACTA	0.0744
AAGGACCG	0.0673
TCCTATCA	0.077
CAGGCTTA	0.0703
AAGACCAC	0.0774
GAGATTTA	0.0689
TATCGCGA	0.0693
ACGACCAC	0.0818

Sequence	binding signal (normalized occupancy)
GACGACTC	0.0761
ATCTGGCA	0.0751
GCACTGTA	0.0737
TCGCGGAA	0.075
AAACAGAA	0.0757
AATAGGAG	0.0729
AAGAAAGG	0.0765
TAGCGAGA	0.0664
AAGCCTAC	0.0679
CCTCATCG	0.0777
AGCATAAC	0.0787
CAGTAGGC	0.0685
AAGCTAAC	0.0782
CTTTCTCC	0.0722
ACTAAAAG	0.0739
GAAACCAA	0.0737
GAAGGGCC	0.0721
AACTAGTG	0.0723
GCCCGAGA	0.0669
ACCAGTCA	0.0791
TACGGATA	0.0812
AATGTTGT	0.0807
CTTACCAC	0.0815
AAGCCCAT	0.0734
CACACACA	0.087

Sequence	binding signal (normalized occupancy)
GTCGATGA	0.0779
TCCAGGCA	0.0758
ATAGAAGG	0.0772
CGCGACAA	0.0699
TGGTCAAA	0.0812
GGGTCGCA	0.0783
GGTCGCGA	0.0731
ATGGAAAA	0.0795
CGCTTCCA	0.0758
ACTCATCA	0.0768
AGGCCGCG	0.0705
CATGAACA	0.0847
AGATCACC	0.0721
AAACGTCA	0.0777
AGGGGTCC	0.0701
GGGGTCTA	0.0781
ATGCAGTC	0.0796
ACTAGCCT	0.0726
AAGCTCGA	0.0705
ATCAGTAA	0.0725
CATGTAAA	0.0785
TCTAAGCA	0.0764
CCTATATA	0.0837
GCCGCCGA	0.0703
CCCTCGCA	0.0775

Sequence	binding signal (normalized occupancy)
ATTACAGA	0.0815
CTAACGAG	0.0739
AAGTTGTG	0.0757
AAGTCGCC	0.067
ATACGTCC	0.0753
AACAATTC	0.0737
ACATCGGG	0.0755
CATGGGAC	0.0894
AGACTTAG	0.0709
AGGGTGGG	0.0853
CTTTAACA	0.0708
CGGTCAAA	0.0736
AATGATTC	0.0753
ATTGATGC	0.0823
ACAGGATC	0.0717
CCACACCA	0.0899
GGCGAGAC	0.0734
GACGTGCC	0.0841
ACCGAAAG	0.0686
GCTCCCGA	0.0734
ATCACAGG	0.0758
CACGAACA	0.0802
CGTTGAAG	0.0758
CTCCGCCC	0.0678
GGGGAACA	0.081

Sequence	binding signal (normalized occupancy)
AACGCGAT	0.0781
CAAGCCTG	0.0719
AGTGCACT	0.0755
ATGGCATG	0.0968
CGTTAGCA	0.0766
AATAACCC	0.0806
CAACTGGC	0.0716
ATATTCCA	0.081
GACTTAGC	0.0702
AAGAAGCG	0.0704
CAACAACG	0.0753
AAAAAACG	0.0732
TAGTAACA	0.0747
TATGTAGA	0.081
CCAAAAAC	0.072
ATAGATTA	0.0827
CTAGTATC	0.0723
ACGCTGAA	0.0752
AGCACACA	0.0906
GCGCGTCA	0.0723
ATCAACAG	0.0796
AACTGCTT	0.0665
CGCGCGCC	0.0783
ACCCTAGG	0.068
ACGCGAGT	0.0833

Sequence	binding signal (normalized occupancy)
CACTGCAA	0.0711
CCTTAGAC	0.0715
AATCCAAA	0.0767
ACTGTGGA	0.0744
AACATGCT	0.0905
GAATGGTC	0.0803
CCGAGTCC	0.0711
CTTGGTCA	0.0735
GGTCCACC	0.0747
ATTGTTCC	0.071
CACTCGCC	0.0795
GTCGGAAA	0.0697
AGGTCCCA	0.0777
GGAGCGAA	0.0664
ACGAAAAA	0.0756
CAAACAAG	0.0708
ACCTGTAC	0.0799
AATAGCAA	0.0783
AACTTGAG	0.0767
CTTCCAAC	0.0716
GCTTCTAC	0.0736
CACGTGGA	0.768
CGAGATGA	0.0745
AAACGCTT	0.0713
CCACAAAG	0.0704

Sequence	binding signal (normalized occupancy)
AACTTATG	0.0772
CTTTGTCA	0.0757
GCCGTGCA	0.0768
CGCGCACA	0.0822
GACACTTA	0.0771
AGCCACAG	0.0728
AGGACCAC	0.0765
CAGGTCCC	0.0743
ACCAGGAC	0.0717
AACGGGGA	0.0725
ACTCGGTC	0.0738
ACCCGGTG	0.0769
ACAAAGAC	0.07
CGTGCAGA	0.0896
AACTTTTC	0.0762
GACATGAA	0.0775
ACAACAGG	0.074
TCTTTGCA	0.0756
CTGGAAAG	0.0676
GCTTCCGA	0.0699
CCCCGAGA	0.0768
ACGACACA	0.0758
GTTAATTA	0.0767
ATTTACCC	0.0798
GATGCTGC	0.078

Sequence	binding signal (normalized occupancy)
CTCCGCAC	0.0692
GTATCCTA	0.0721
AAAGTATT	0.0739
ACTCCCCT	0.0719
ACAAAACG	0.0797
GTCGTTTA	0.0732
CGTGAAGA	0.0801
AGCTGTAT	0.075
GCCGTAGC	0.0677
ATCGCCGG	0.0665
GAATAGGA	0.0763
ACGAAGGA	0.0734
CATGGGGC	0.0935
CCAATCCC	0.0814
TATCTCCA	0.0757
CCGCAACA	0.0775
TGACGTCA	0.0925
ACTATTTG	0.0747
ACTAGCGC	0.0701
